For 73 sequences, binding signal (log2 normalized intensity) results are on record in paper PMC10726135.

Some of the results follow. At the low end of the ranking the order means little. The protein was read in a cell extract, so binding may be indirect.

This test deals with T1, HNF4alpha2 (COS-7 nuclear extract) (UniProt P41235).
T1 sequence: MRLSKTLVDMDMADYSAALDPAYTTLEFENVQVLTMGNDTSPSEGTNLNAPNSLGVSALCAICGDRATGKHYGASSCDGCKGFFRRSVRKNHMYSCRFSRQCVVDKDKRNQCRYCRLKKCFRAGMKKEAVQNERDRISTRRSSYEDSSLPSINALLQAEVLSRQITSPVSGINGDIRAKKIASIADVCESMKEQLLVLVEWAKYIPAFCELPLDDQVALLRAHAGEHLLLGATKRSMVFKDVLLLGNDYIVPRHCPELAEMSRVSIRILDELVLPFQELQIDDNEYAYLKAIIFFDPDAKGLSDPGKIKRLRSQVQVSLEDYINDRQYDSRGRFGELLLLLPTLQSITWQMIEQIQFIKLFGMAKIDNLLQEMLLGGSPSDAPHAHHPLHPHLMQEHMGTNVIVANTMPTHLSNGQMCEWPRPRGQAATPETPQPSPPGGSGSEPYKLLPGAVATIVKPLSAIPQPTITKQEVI
Nature of the test: protein-binding microarray. The following applies: COS-7 nuclear extract on double-stranded Agilent 4x180k PBM; binding buffer, salt, pH and temperature not given; high values mean tight binding; double strand, one strand shown; sequences stand for … in …GCCTAGGGAGATTAGAGTATCGGTCGA
As for CGGCAGAACTGGTGACCGGACACAAAAGCT, the binding signal (log2 normalized intensity) is -1.21.

In the case of AGGTAACGTAAACAAGTAAGGAAGACAAGA, the binding signal (log2 normalized intensity) is -1.1.

Turning to GCGACCCAGGCAGCCCCTTTGCTCCACACA, the binding signal (log2 normalized intensity) was -0.966.

On to CCTCCCAGCCTGGAGGAGGGCGAGGCCGAG, for which the binding signal (log2 normalized intensity) is -1.09.

Consider ACCTGCTGGAATGTTTCAAGTGGCCTGATT, for which the binding signal (log2 normalized intensity) worked out at 1.29.

Turning to TGGACAGCAGACAACTTTTCCTCTAACCAC, the binding signal (log2 normalized intensity) was -1.19.

Regarding TACCTGTACGTTACTCTGTACCTCGTGGGT, the binding signal (log2 normalized intensity) was 1.53.

As to CTACATTCTAGATGACCCCTCTCTACTGGT, the binding signal (log2 normalized intensity) came to 3.61.

Consider GCTCCATACTCCTTATCTTGGCTGTAAGAT, for which the binding signal (log2 normalized intensity) was found to be 1.39.

With CTGGACCTCATCTTCCTCCCCAATATGGTC, the binding signal (log2 normalized intensity) was 2.37.

For the sequence GTAGGGCCCCCAGCCAGGCCCCAGGCCAAC, the binding signal (log2 normalized intensity) was 3.64.

In the case of CTCCACTTGGGTATCAGATAGTCCAATGTC, the binding signal (log2 normalized intensity) was 2.04.

As to ATTCCAGCTATTCTGCCTTATCAGCGGCCC, the binding signal (log2 normalized intensity) was -0.984.

As to GACACCAAAGGTCACGTTCCAGCTGCTTCA, the binding signal (log2 normalized intensity) turned out to be 2.08.

As to GATTAGAGAGCAGGTGATAAGGAACTGTTA, the binding signal (log2 normalized intensity) was -0.819.

Regarding TCTTCTTCACCGGAGATTTACATTCCAGAG, the binding signal (log2 normalized intensity) is 0.554.

As for CACAGAAATCCAAAGGTCAACAGCCAGCCT, the binding signal (log2 normalized intensity) stood at 3.53.

In the case of ACCTCTGCTCCCAAAGCAAACCTCCCCAGC, the binding signal (log2 normalized intensity) worked out at 3.75.

Take CTTATTATCTTCAATGATAAGGAATGAGGA: the binding signal (log2 normalized intensity) is 0.423.

With ACAGGTTTCTGTCCTGGTCACAGTAACAGG, the binding signal (log2 normalized intensity) is -0.431.

As for ATAGATAAGAAAGGCTACAAAGGTGACTTG, the binding signal (log2 normalized intensity) worked out at 0.608.

Turning to CCGGCAAGTCTGAAATCTACAGGACAGCCA, the binding signal (log2 normalized intensity) was -1.12.

AGGTGGTTCTTTCTGAGTTGCATGAATTTA: the binding signal (log2 normalized intensity) was 1.33.

Regarding TGCAGTTTCCCTATTCTCAGTGATATAAAA, the binding signal (log2 normalized intensity) was 0.994.

AAGAGGCTCTAGATCTCAAAGTCCAAATAG: the binding signal (log2 normalized intensity) was determined as 4.24.

In the case of CATATCACAGGAGAAAACAGCACAAGCAAT, the binding signal (log2 normalized intensity) was -1.04.

On to TGTTCTCTTGGCCAACAACTAGGGCAAAGG, for which the binding signal (log2 normalized intensity) turned out to be 2.57.

On to AACTGTGGACTCGCTGCCTTTTATCCCTTT, for which the binding signal (log2 normalized intensity) was 1.23.

On to TATACAAGAAAGAAAGAATGTTTGCTTCTG, for which the binding signal (log2 normalized intensity) is -0.716.

In the case of CAGCTGTTATCTCTTTTGTGATAGAATGAA, the binding signal (log2 normalized intensity) was determined as 1.92.

Take TGACCTTTGCATTCTTACCCAAGCCCCAAA: the binding signal (log2 normalized intensity) is 3.73.

For the sequence CCCCTTGATGCATCAGACCCCTGAGTTTCG, the binding signal (log2 normalized intensity) was determined as 3.05.

For TGACAGTCCAAGGACTCAATGATACCATCA, the binding signal (log2 normalized intensity) is -1.16.

On to GACTTTGAACTTCATGTGTGGTGCAGATTC, for which the binding signal (log2 normalized intensity) was found to be 1.97.

Consider TCATTCATCCAAGGACTTTGTAATCATATT, for which the binding signal (log2 normalized intensity) turned out to be 2.24.

As to AAGGCCGGAGGGCGGGGCGGGGCAGCAGGG, the binding signal (log2 normalized intensity) is -1.13.

On to ACAAATGAGGGGACAAAGTTCGTGGAAAGT, for which the binding signal (log2 normalized intensity) stood at 2.91.

GTTCACCTTTCCCTTCTTCTCCTCCCAACA: the binding signal (log2 normalized intensity) is 2.91.

In the case of TGGGAAGCTGGCACAGCAGATGCTGGGCAA, the binding signal (log2 normalized intensity) is -1.18.

For AAGAACATTCCAGCTTTGAAGTGCTTCCTG, the binding signal (log2 normalized intensity) turned out to be 0.00809.

AGGAATGTGAAATGAATTTACAAACAAATG: the binding signal (log2 normalized intensity) was -0.996.

On to ATACAACTAGGCTACATGATACAGCCTTTT, for which the binding signal (log2 normalized intensity) is -1.08.

For the sequence TCTGGGTGGGGGTGGAGGCAGCAGCTCCAA, the binding signal (log2 normalized intensity) was -1.17.

In the case of GAGGAGCGCATCGGGCGCCAGCGCCCCCGT, the binding signal (log2 normalized intensity) was 0.779.

On to GGGATAGGCAGGAGTTAACTAACAAAAGCA, for which the binding signal (log2 normalized intensity) was -1.08.

For GTGGCTCACAAATGGAGTTTGGTTTAAAGT, the binding signal (log2 normalized intensity) was determined as 1.62.

For TTTGGCCTGCTGAGCCCAATCTAGCAAAAA, the binding signal (log2 normalized intensity) was -1.08.

As to CTGTGAAAGAAAAGTACTTTAGTGTATTGT, the binding signal (log2 normalized intensity) is 1.37.

As to CTCTCTTAACAGTCTGTTATCCCTAGGAAG, the binding signal (log2 normalized intensity) amounted to 0.844.

On to GGATAGCGTCATCAGTCCAGGAGGGTCACA, for which the binding signal (log2 normalized intensity) was 1.32.

For the sequence TGTCATACTGGTTGAATGGACGGACAGGTA, the binding signal (log2 normalized intensity) was found to be 1.66.

Consider CCTCGCCTATGGTATGTATGGAATGTCACT, for which the binding signal (log2 normalized intensity) was 1.63.

TAATTTTGCACAGCCAGCCTGAGGCAGTTG: the binding signal (log2 normalized intensity) was -1.14.

Regarding ACCCAAATATGGTCCCTGACCTTAAGGAGT, the binding signal (log2 normalized intensity) is 2.15.

For the sequence AGTGTGCAAATGTGTCTTTTTTAGTCAGCA, the binding signal (log2 normalized intensity) is 1.32.

Turning to ATTGCAAGGATTCCAAATTTAGTGAGTGGT, the binding signal (log2 normalized intensity) is 1.21.

For the sequence TTATGTTCACCTCAGCACTGAGATAAAAAT, the binding signal (log2 normalized intensity) was 0.185.

Take TGATGAGTCCAAGTTCCACATCAAGCACAT: the binding signal (log2 normalized intensity) was 0.00918.

For CATCTGCTCACATACCACTGACTAAAGCAA, the binding signal (log2 normalized intensity) is -1.16.

On to ACTTATCAGGGTTATTTGCTAAAACTGGGC, for which the binding signal (log2 normalized intensity) came out at 0.915.

For TTTTCGAATGGACAGGATGTTCTACACTGC, the binding signal (log2 normalized intensity) is -0.942.

Take GAGCTACCGCCTGAACCTTGGATCTCCTGC: the binding signal (log2 normalized intensity) came to 2.1.

For AGCAAAGGTTGGCTAAAGATAACCTAGAAA, the binding signal (log2 normalized intensity) is -1.13.

With TGACTTGGGTGCACCAATGATCAAAGAGAC, the binding signal (log2 normalized intensity) is 0.0185.

With CCCCGTTCCCGGCAGCCCGCGCGTGGCCCA, the binding signal (log2 normalized intensity) is 2.39.

GTTTTGAAAGACCTTTTCCCTCCCTCCCAG: the binding signal (log2 normalized intensity) came to 3.65.

For the sequence CCAGCTCCTCTTCACACCATGCTCTAGTCT, the binding signal (log2 normalized intensity) was -0.56.

As to GCCAGATGGCCACCCTTCAGCAAATAGTGG, the binding signal (log2 normalized intensity) is -1.17.

For AGGTAGAGTCTAAGGCTAAAACATCCTGGG, the binding signal (log2 normalized intensity) is -1.09.

For ACCTTTGGTCTTTGGTGAAACTCCACTACA, the binding signal (log2 normalized intensity) was 0.744.

As for GAATATTTATCAGATACAGGAGATCAGATG, the binding signal (log2 normalized intensity) was -0.595.

For CGCCTTCATTCCTAGCCCCACCAAACTGAC, the binding signal (log2 normalized intensity) was 3.71.

In the case of AAAACTTGGACTCTATAGCCTATGCTTTGT, the binding signal (log2 normalized intensity) stood at 0.709.
